From the supplement of paper PMC12067093, “Discovery and optimisation of a covalent ligand for TRIM25 and its application to targeted protein ubiquitination” (Chemical Science, 2025)
Targets with the largest changes are over-represented here; the source holds about 21,000 in all.

Compound: Cc1cc(ccc1-c1ccccc1)C(=O)N1CCCN(CC1)C(=O)CCl [compound 10]
Experiment: probe-labelled cysteine peptide fold change vs DMSO (competition) (log2 fold change); higher = less target engagement (more negative = stronger competition)
Settings: THP-1, incubation time: 4 h
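Further: competitive profiling in live THP-1 cells: cysteine peptides tagged with an iodoacetamide desthiobiotin (IA-DTB) probe, intensity after compound treatment relative to DMSO-treated cells.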

UniProt Q8N4S0, sequence (Q8N4S0 whole entry): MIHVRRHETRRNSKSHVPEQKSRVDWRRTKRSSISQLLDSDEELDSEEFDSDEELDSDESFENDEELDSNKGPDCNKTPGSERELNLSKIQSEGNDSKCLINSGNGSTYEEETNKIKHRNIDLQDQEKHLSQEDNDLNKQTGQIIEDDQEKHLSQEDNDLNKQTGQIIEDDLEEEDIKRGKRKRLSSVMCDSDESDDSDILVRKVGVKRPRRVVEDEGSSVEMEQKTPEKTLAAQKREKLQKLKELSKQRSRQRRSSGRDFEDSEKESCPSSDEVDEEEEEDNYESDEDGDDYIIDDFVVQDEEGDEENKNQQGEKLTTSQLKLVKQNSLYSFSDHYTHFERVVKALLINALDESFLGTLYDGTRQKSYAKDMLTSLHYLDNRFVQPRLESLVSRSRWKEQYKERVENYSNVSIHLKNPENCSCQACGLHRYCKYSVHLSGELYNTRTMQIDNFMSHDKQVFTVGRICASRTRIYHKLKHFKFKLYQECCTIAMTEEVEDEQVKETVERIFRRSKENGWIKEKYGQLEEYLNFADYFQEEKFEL
UniProt Q7Z3J2, sequence (Q7Z3J2 whole entry, looked up): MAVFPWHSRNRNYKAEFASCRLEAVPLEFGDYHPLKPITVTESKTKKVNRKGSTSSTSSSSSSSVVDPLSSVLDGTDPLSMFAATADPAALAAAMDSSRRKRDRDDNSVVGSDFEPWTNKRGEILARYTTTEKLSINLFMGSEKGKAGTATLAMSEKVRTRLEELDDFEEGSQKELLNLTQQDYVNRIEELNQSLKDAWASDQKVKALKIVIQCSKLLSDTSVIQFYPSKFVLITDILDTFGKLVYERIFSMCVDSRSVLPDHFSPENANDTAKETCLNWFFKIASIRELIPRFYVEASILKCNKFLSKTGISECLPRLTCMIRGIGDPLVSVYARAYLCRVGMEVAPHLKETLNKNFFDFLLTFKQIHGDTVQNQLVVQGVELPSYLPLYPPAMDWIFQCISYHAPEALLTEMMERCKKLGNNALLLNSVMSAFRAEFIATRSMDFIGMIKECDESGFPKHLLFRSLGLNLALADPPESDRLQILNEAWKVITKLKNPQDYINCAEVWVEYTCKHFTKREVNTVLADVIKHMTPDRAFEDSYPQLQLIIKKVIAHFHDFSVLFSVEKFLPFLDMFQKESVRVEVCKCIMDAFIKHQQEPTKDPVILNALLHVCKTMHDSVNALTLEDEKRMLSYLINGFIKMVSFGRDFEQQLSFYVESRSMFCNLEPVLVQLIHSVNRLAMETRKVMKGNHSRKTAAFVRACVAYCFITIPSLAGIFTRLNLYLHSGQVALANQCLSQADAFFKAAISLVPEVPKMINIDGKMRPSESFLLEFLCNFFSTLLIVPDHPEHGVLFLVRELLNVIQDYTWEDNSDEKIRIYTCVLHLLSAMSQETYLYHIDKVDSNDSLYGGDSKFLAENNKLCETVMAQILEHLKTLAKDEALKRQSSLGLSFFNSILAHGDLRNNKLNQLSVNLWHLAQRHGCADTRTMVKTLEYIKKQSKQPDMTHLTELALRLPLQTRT
UniProt P30307, sequence (P30307 whole entry): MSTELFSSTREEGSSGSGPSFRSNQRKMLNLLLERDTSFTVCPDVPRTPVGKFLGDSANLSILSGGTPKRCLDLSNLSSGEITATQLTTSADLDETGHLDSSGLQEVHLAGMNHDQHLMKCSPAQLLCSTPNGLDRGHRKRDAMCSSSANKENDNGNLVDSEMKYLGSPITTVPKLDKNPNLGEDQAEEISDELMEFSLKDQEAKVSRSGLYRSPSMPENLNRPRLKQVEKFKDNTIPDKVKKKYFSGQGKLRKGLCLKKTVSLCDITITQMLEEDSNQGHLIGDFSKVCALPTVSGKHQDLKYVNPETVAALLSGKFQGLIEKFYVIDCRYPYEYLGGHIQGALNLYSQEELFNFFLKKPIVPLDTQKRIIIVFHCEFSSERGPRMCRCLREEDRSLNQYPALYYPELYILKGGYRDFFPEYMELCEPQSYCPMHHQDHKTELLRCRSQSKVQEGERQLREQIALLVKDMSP
UniProt Q13042, sequence (Q13042 whole entry, looked up): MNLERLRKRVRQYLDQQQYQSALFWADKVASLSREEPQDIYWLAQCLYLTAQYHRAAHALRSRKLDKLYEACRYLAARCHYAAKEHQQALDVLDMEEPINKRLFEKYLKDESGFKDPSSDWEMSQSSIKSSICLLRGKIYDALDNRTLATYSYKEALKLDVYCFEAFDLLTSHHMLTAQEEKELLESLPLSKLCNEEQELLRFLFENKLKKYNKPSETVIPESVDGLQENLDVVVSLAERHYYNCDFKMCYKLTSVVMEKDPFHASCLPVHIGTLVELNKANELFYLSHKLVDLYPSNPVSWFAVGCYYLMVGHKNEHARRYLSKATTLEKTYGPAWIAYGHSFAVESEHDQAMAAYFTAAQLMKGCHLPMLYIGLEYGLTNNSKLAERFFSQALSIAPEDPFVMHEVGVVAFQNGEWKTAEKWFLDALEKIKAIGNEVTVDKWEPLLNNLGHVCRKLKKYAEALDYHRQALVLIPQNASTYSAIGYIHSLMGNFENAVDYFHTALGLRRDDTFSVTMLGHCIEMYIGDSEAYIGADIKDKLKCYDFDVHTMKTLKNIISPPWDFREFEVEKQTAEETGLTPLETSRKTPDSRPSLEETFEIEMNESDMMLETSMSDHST
UniProt O15078, sequence (O15078 whole entry): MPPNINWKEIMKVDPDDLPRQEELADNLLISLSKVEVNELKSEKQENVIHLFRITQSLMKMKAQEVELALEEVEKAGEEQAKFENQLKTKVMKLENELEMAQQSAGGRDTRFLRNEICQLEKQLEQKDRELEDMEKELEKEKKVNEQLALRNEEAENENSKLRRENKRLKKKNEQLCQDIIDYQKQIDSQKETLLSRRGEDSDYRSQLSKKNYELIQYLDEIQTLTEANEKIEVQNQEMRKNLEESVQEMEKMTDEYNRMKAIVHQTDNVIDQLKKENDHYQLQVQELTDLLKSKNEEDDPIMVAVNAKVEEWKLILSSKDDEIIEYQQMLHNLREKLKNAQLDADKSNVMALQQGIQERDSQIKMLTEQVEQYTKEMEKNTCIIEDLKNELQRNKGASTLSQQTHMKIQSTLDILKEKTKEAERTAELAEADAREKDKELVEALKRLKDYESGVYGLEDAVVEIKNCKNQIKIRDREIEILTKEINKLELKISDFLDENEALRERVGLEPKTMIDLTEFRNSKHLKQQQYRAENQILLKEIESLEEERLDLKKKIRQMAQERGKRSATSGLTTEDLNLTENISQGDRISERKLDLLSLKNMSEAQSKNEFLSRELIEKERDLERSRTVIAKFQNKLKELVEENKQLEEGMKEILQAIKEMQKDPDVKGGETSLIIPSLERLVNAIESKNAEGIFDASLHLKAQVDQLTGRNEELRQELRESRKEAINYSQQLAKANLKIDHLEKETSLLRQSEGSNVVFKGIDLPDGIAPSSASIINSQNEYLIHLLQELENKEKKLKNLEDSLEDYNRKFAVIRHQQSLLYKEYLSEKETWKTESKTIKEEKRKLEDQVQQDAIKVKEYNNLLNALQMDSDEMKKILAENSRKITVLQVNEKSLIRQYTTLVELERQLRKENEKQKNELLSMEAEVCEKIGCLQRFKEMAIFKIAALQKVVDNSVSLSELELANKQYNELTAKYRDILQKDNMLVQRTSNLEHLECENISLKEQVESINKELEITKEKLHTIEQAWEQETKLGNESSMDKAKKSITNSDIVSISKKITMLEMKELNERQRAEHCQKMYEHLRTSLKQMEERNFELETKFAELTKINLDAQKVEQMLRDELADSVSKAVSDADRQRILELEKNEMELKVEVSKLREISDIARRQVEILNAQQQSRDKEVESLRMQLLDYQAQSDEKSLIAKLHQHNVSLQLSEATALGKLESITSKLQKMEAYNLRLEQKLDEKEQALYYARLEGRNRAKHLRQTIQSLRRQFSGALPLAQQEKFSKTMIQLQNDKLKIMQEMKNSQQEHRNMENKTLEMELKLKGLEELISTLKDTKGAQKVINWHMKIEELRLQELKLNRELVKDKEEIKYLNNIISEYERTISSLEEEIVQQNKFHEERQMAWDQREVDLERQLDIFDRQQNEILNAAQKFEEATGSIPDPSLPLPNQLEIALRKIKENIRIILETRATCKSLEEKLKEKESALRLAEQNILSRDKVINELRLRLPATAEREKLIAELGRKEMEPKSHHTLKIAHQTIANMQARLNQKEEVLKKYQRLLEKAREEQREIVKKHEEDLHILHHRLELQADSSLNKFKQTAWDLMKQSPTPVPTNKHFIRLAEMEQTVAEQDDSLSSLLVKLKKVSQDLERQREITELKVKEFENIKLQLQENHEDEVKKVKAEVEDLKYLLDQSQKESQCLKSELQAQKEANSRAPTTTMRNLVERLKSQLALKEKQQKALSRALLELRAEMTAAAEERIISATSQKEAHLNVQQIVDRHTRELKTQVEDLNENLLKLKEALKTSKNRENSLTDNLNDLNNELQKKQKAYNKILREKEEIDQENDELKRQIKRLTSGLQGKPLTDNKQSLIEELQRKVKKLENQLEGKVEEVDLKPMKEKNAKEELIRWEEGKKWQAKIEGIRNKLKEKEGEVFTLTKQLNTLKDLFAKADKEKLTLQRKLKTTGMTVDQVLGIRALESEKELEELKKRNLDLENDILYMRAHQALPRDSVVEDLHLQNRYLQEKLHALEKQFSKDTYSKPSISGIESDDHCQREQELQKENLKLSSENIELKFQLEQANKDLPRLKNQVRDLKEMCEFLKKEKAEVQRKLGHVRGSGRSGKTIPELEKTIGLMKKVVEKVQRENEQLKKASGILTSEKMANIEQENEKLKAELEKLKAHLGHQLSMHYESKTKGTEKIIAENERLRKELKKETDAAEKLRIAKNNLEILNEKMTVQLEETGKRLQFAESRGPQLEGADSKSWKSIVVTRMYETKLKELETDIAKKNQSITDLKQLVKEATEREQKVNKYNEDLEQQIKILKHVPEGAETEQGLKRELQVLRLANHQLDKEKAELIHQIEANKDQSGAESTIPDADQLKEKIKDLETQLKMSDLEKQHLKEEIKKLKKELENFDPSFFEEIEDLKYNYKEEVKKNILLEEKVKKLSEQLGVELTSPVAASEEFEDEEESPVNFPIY

Target	probe-labelled cysteine peptide fold change (10 µM)	probe-labelled cysteine peptide fold change (50 µM)
CCNE2_O96020_109_NLFINPSPLPDLSWGCSK (UniProt O96020)	-0.35	-1.56
C16orf62_Q7Z3J2_321_LTCMIR (UniProt Q7Z3J2)	-0.345	-1.06
BIRC6_Q9NR09_1319_CAMLQFSEFHEK (UniProt Q9NR09)	-0.0296	-0.189
BAX_Q07812_62_KLSECLK (UniProt Q07812)	0.0763	0.209
CCAR1_Q8IX12_937_DLLMAFVYFDQSHCGYLLEK (UniProt Q8IX12)	0.383	1.17
CASP7_P55210_70_CIIINNK (UniProt P55210)	0.0573	-0.241
CENPF_P49454_373_LTEDLSCQR (UniProt P49454)	0.0608	0.272
CDC25C_P30307_42_DTSFTVCPDVPR (UniProt P30307)	-0.302	-0.456
CCDC82_Q8N4S0_422+424_NPENCSCQACGLHR (UniProt Q8N4S0)	0.307	0.0324
BPNT1_O95861_243_ASAYVFASPGCK (UniProt O95861)	-0.327	0.0815
BAG5_Q9UL15_218_HLSCVLSGLIADLDALDVCGR (UniProt Q9UL15)	-0.17	-0.186
CDKN2AIP_Q9NXV6_24_CDGETDK (UniProt Q9NXV6)	-0.0778	-0.163
CLASP1_Q7Z460_509_CYWGFHSHFSR (UniProt Q7Z460)	0.149	0.231
BCL2L12_Q9HB09_266_ACPGPPPPSPEPLAR (UniProt Q9HB09)	-1.45	-1.65
CAD_P27708_484_NERPDGVLLTFGGQTALNCGVELTK (UniProt P27708)	0.0927	0.138
CEP290_O15078_998_TSNLEHLECENISLK (UniProt O15078)	-0.0327	0.118
CASP6_P55212_68_GTCADRDNLTR (UniProt P55212)	-0.352	-0.342
CHURC1_Q8WUH1_91_NCHHVIAR (UniProt Q8WUH1)	0.0974	-0.0139
BMP2K_Q9NSY1_912_VNVQECHAVGPEAHTIPGYPK (UniProt Q9NSY1)	-0.187	-0.223
C20orf27_Q9GZN8_131_EGVLKEEILLACEGGTGTCVR (UniProt Q9GZN8)	0.163	-0.157
C12orf29_Q8N999_13_KMPCVFVTEVK (UniProt Q8N999)	-0.0531	-0.206
BAZ1A_Q9NRL2_1195_TVPEGDWFCPECRPK (UniProt Q9NRL2)	0.186	0.0112
BRAP_Q7Z569_110_ECINAAPDSPSK (UniProt Q7Z569)	-0.14	-0.673
CC2D1B_Q5T0F9_809_LERLENECEIR (UniProt Q5T0F9)	-0.174	0.209
CDC16_Q13042_46_EEPQDIYWLAQCLYLTAQYHR (UniProt Q13042)	0.0943	1.25
CENPF_P49454_621_TLFSCWK (UniProt P49454)	0.24	0.202
